The other results are listed elsewhere or left out.
How the values were obtained:
Test in all cases: glycan array binding signal (z-score within array); higher = stronger binding
Conditions in all cases: glycan notation: IUPAC condensed, linker removed
[1] = target: GlcNAc(a1-6)Gal(b1-4)GlcNAc
Procedure, shortened: (§1)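 Glycan array data were curated from 3228 arrays in the Consortium for Functional Glycomics database and kept only where the protein sequence was available. Glycan names were converted to IUPAC-condensed notation, and columns mapping to the same glycan were averaged. The binding signal is a within-array Z-score, averaged across arrays of the same protein sequence at different concentrations or buffers and across linkers. Negative Z-scores can be read as non-binding.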

[2] = target: GlcNAc(b1-2)Gal(b1-3)GalNAc
Procedure, shortened: as §1

[3] = target: GlcNAc(b1-2)Man(a1-3)[GlcNAc(b1-2)Man(a1-6)]Man(b1-4)GlcNAc(b1-4)GlcNAc
Procedure, shortened: as §1

[4] = target: GlcNAc(b1-2)Man(a1-3)[GlcNAc(b1-2)Man(a1-6)]Man(b1-4)GlcNAc(b1-4)[Fuc(a1-6)]GlcNAc
Procedure, shortened: as §1

[5] = target: GlcNAc(b1-2)Man(a1-3)[GlcNAc(b1-4)][GlcNAc(b1-2)Man(a1-6)]Man(b1-4)GlcNAc(b1-4)GlcNAc
Procedure, shortened: as §1

[6] = target: GlcNAc(b1-2)Man(a1-3)[GlcNAc(b1-4)][GlcNAc(b1-2)Man(a1-6)]Man(b1-4)GlcNAc(b1-4)[Fuc(a1-6)]GlcNAc
Procedure, shortened: as §1

[7] = target: GlcNAc(b1-2)[GlcNAc(b1-4)]Man(a1-3)[GlcNAc(b1-2)Man(a1-6)]Man(b1-4)GlcNAc(b1-4)GlcNAc
Procedure, shortened: as §1

[8] = target: GlcNAc(b1-2)[GlcNAc(b1-4)]Man(a1-3)[GlcNAc(b1-4)][GlcNAc(b1-2)Man(a1-6)]Man(b1-4)GlcNAc(b1-4)GlcNAc
Procedure, shortened: as §1

[9] = target: GlcNAc(b1-2)[GlcNAc(b1-4)]Man(a1-3)[GlcNAc(b1-4)][GlcNAc(b1-2)[GlcNAc(b1-6)]Man(a1-6)]Man(b1-4)GlcNAc(b1-4)GlcNAc
Procedure, shortened: as §1

[10] = target: GlcNAc(b1-2)[GlcNAc(b1-4)]Man(a1-3)[GlcNAc(b1-4)][GlcNAc(b1-2)[GlcNAc(b1-6)]Man(a1-6)]Man(b1-4)GlcNAc(b1-4)[Fuc(a1-6)]GlcNAc
Procedure, shortened: as §1

[11] = target: GlcNAc(b1-2)[GlcNAc(b1-6)]Man(a1-6)[GlcNAc(b1-2)Man(a1-3)]Man(b1-4)GlcNAc(b1-4)GlcNAc
Procedure, shortened: as §1

[12] = target: GlcNAc(b1-2)[GlcNAc(b1-6)]Man(a1-6)[GlcNAc(b1-2)Man(a1-3)]Man(b1-4)GlcNAc(b1-4)[Fuc(a1-6)]GlcNAc
Procedure, shortened: as §1

[13] = target: GlcNAc(b1-2)[GlcNAc(b1-6)]Man(a1-6)[GlcNAc(b1-4)][GlcNAc(b1-2)Man(a1-3)]Man(b1-4)GlcNAc(b1-4)GlcNAc
Procedure, shortened: as §1

GlcNAc(b1-3)Fuc = target: GlcNAc(b1-3)Fuc
Procedure, shortened: as §1

GlcNAc(b1-3)Gal = target: GlcNAc(b1-3)Gal
Procedure, shortened: as §1

[14] = target: GlcNAc(b1-3)Gal(b1-3)GalNAc
Procedure, shortened: as §1

GlcNAc(b1-3)Gal(b1-4)Glc = target: GlcNAc(b1-3)Gal(b1-4)Glc
Procedure, shortened: as §1

[15] = target: GlcNAc(b1-3)Gal(b1-4)GlcNAc
Procedure, shortened: as §1

[16] = target: GlcNAc(b1-3)Gal(b1-4)GlcNAc(b1-2)Man(a1-3)[GlcNAc(b1-3)Gal(b1-4)GlcNAc(b1-2)Man(a1-6)]Man(b1-4)GlcNAc(b1-4)GlcNAc
Procedure, shortened: as §1

[17] = target: GlcNAc(b1-3)Gal(b1-4)GlcNAc(b1-2)Man(a1-3)[GlcNAc(b1-3)Gal(b1-4)GlcNAc(b1-2)Man(a1-6)]Man(b1-4)GlcNAc(b1-4)[Fuc(a1-6)]GlcNAc
Procedure, shortened: as §1

[18] = target: GlcNAc(b1-3)Gal(b1-4)GlcNAc(b1-2)[GlcNAc(b1-3)Gal(b1-4)GlcNAc(b1-6)]Man(a1-6)[GlcNAc(b1-3)Gal(b1-4)GlcNAc(b1-2)Man(a1-3)]Man(b1-4)GlcNAc(b1-4)GlcNAc
Procedure, shortened: as §1

[19] = target: GlcNAc(b1-3)Gal(b1-4)GlcNAc(b1-3)Gal(b1-4)GlcNAc
Procedure, shortened: as §1

B1: InvD YPIII (Yersinia pseudotuberculosis), B1JSC0 (protein)
chain: MIKYFSFFKKPEPIVGILPNRQSHHILPTHIRRVAWGTLLLQLFIPLSVSFSPAIAAMKASKADTMVSYSSTEPYVLGSGETVAMVAKKYGITVDELKKINIYRTFSRPFTALTTGDEIDIPRKASPFSVDNNKDNRLSVENTLAGHAVAGATALSNGDVAKSGERMVRSAASNEFNNSAQQWLSQFGTARVQLNINDDFHLDGSAADVLIPLYDNEKSILFTQLGARNKDSRNTVNMGAGVRTFQGNWMYGANTFFDNDLTGKNRRIGVGAEAWTDYLKLSANNYFGITDWHQSRDFIDYNERPANGYDLRAEAYLPSYPQLGGKAMYEKYRGDDVALFGKDNRQKNPHAITAGVNYTPIPLVTIGAEHRAGKGGQNDSNINFQLNYRLGETWQSHIDPSAVAASRTLAGSRYDLVERNNHIVLDYQKQNLVRLSLPDSLAGDPFSQLSVTAQVTATHGLERIDWQSAELMAAGGVLKQTSKNGLEITLPEYQMNRTGGNSYILNAIAYDTQGNASSQASMLITVNAQKINIANSTLVAVPINIEANNSDTSVVTLTLKDDNNIPVTGQDVTFLSPLGTLSAMTDSGNGVYTATLTAGTVSGTTAVSSNINGSALDMTPATVTLNGNSGELSITHSMLVAAPVNIEANGSDTSVVTLTLRDSNNNPVTGQTVTFAGTLGTLGAVTEGSSGVYTATLTAGIMVGTSSITASVNSTALGVTPATVTLNGDSGNLSTTNSTLVAAPVNIEANSSDTSVVTLTLRDNNNNPVTGQTVVFTSTLGTLGNVTEQASGVYTATLTAGTVSGVASLSVSVGGNALGVTPATVTLNGDSGNLSTTNSTLVAAPVNIEANSSDTSVVTLTLRDNNNNPVTGQTVNFAGTLGTLGTVSEGSSGVYTTTLTAGTVAGVASLSVNVGGNALGVTPATVTLNGNSGNLSATNSTLVAAPVNIEANSSDTSVVTLTLRDNNNNPVTGQTVAFTSTLGTLGNVTEQASGVYTATLTAGTVSGVASLSVSVNSNALGVTPATVTLNGDSGNLSTTNSTLVAAPVNIEANSSDTSVVTLTLRDNNNNPVTGQTVAFTSTLGTLGNVTEQASGLYTATLTAGTVSGVASLSVNVGGNALGVTPATVTLNGDSGNLSATNSTLVAAPVNIEANSSDTSVVTLTLRDNNNNPVTGQTVAFTSTLGTLGNVTEQASGLYTATLTAGTVSGVASLSVNVGGTALGVTPATVTLNGDSGNLSTTNSTLVAAPVNIEANSSDTSVVTLTLRDNNNNPVTGQTVAFTSTLGTLGNVTEQASGLYTATLTAGTVSGVASLSVSVNSTALGVTPATVTLNGDSGNLSTTNSTLVAAPVNIEANSSDTSVVTLTLRDNNNNPVTGQTVAFTSTLGTLGNVTEQASGVYTATLTAGTVAGVASLSVNVGGNALGVTPATVTLNGDSGNLSTTNSTLVAAPVNIEANSSDTSVVTLTLRDNNNNPVTGQTVAFTSTLGTLGNVTEQASGVYTATLTAGTVSGVASLSVSVGSSALGVTPATVTLNGDSGNLSTTNSTLVAAPVNIEANNSDTSVVTLTLRDNNNNPVTGQTVAFTSTLGTLGNVTEQASGVYTATLTAGTVSGVASLSVSVNSNALGVTPATVTLNGDSGNLSTTNSTLVAAPVNIEANSSDTSVVTLTLRDNNNNPVTGQTVVFTSTLGTLGNVTEQASGLYTATLTAGTVSGVASLSVSVGGNALGVTGNITLAPGALDAARSILAVNKPSINADDRIGSTITFTAQDAQGNAITGLDIAFMTDLENSQIMTLVDHNDGTYTANINGTQTGIANIAVQSSGATIAGLAATMVTITPGAWNTTQATPVMTVALPITTCQSSSGVYKRYYIGIVTHELYDNYGNEISGILTYNLGAGRYTTVTSQNSSVSGSNGLTRRSNSPVSHFILTSDAYTSQAACYAERIANVNVTITVTAITDDFKTSAVNKVFILGTGSN
Question: B1 was tested. Which “glycan array binding signal (z-score)” value [1] did it give?
Answer: The value was -0.305.

Question: And the “glycan array binding signal (z-score)” value [2]?
Answer: Its value is 0.491.

Question: And the “glycan array binding signal (z-score)” value [3]?
Answer: Its value is 0.186.

Question: And the “glycan array binding signal (z-score)” value [4]?
Answer: The value was 0.422.

Question: What about the “glycan array binding signal (z-score)” value [5] of the same binder?
Answer: Its value is -0.366.

Question: And the “glycan array binding signal (z-score)” value [6]?
Answer: The value was -0.286.

Question: And the “glycan array binding signal (z-score)” value [7]?
Answer: The value was -0.085.

Question: What about the “glycan array binding signal (z-score)” value [8] of the same binder?
Answer: Its value is -0.29.

Question: What about the “glycan array binding signal (z-score)” value [9] of the same binder?
Answer: The value was -0.404.

Question: What about the “glycan array binding signal (z-score)” value [10] of the same binder?
Answer: The value was -0.208.

Question: And the “glycan array binding signal (z-score)” value [11]?
Answer: The value was -0.237.

Question: And the “glycan array binding signal (z-score)” value [12]?
Answer: Its value is -0.307.

Question: What about the “glycan array binding signal (z-score)” value [13] of the same binder?
Answer: Its value is -0.227.

Question: What about the “glycan array binding signal (z-score)” value (GlcNAc(b1-3)Fuc) of the same binder?
Answer: Its value is -0.207.

Question: And the “glycan array binding signal (z-score)” value (GlcNAc(b1-3)Gal)?
Answer: The value was -0.272.

Question: And the “glycan array binding signal (z-score)” value [14]?
Answer: The value was 0.135.

Question: What about the “glycan array binding signal (z-score)” value (GlcNAc(b1-3)Gal(b1-4)Glc) of the same binder?
Answer: The value was -0.325.

Question: What about the “glycan array binding signal (z-score)” value [15] of the same binder?
Answer: Its value is -0.139.

Question: And the “glycan array binding signal (z-score)” value [16]?
Answer: Its value is -0.006.

Question: What about the “glycan array binding signal (z-score)” value [17] of the same binder?
Answer: The value was -0.04.

Question: What about the “glycan array binding signal (z-score)” value [18] of the same binder?
Answer: The value was -0.181.

Question: And the “glycan array binding signal (z-score)” value [19]?
Answer: The value was -0.37.

— the supplement of paper PMC8728848
